This passage reports binding results from publication PMC4170599.

The chains behind the UniProt entries cited, without tags or fusion partners. Residues count along the entry.
UniProt P11021, residues 19-654: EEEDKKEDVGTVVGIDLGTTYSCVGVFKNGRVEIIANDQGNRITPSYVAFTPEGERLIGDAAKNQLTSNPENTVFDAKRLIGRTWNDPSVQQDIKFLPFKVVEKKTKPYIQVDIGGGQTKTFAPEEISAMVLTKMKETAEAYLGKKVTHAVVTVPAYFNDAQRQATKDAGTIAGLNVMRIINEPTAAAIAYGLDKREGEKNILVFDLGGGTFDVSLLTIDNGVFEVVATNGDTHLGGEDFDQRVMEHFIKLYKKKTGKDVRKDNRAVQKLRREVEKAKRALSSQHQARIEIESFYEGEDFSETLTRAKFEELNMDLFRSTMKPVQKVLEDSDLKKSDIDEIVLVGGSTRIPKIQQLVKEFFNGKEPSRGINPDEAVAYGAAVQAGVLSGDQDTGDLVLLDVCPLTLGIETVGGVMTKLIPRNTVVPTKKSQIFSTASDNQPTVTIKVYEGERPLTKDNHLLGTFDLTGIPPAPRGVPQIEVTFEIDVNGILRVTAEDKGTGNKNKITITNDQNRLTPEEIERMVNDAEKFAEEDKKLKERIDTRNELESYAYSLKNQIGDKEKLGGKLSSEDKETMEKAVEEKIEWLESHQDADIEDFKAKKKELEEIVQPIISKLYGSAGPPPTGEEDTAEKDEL
UniProt P35222: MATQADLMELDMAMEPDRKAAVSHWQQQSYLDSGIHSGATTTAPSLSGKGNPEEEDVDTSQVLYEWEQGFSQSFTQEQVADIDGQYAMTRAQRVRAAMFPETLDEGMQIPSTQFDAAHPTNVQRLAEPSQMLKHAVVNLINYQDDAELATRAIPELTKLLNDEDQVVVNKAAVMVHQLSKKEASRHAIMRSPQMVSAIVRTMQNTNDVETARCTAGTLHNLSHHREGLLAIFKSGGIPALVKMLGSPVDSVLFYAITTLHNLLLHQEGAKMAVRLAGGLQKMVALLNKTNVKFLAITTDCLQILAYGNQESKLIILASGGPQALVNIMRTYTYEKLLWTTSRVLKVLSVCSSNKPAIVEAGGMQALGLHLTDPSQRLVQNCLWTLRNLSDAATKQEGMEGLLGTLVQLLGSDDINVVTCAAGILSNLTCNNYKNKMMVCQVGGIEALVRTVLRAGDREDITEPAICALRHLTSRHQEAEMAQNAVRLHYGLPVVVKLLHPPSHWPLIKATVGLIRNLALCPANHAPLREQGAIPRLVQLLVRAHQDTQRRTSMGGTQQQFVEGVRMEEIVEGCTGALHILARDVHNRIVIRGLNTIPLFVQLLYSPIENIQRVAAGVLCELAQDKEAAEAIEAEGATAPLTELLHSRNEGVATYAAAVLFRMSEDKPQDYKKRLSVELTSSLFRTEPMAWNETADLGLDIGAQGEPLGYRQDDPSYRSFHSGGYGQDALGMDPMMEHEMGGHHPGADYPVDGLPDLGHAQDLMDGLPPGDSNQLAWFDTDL
truncated N1-APC (aa 1-448) (P25054, residues 1-448): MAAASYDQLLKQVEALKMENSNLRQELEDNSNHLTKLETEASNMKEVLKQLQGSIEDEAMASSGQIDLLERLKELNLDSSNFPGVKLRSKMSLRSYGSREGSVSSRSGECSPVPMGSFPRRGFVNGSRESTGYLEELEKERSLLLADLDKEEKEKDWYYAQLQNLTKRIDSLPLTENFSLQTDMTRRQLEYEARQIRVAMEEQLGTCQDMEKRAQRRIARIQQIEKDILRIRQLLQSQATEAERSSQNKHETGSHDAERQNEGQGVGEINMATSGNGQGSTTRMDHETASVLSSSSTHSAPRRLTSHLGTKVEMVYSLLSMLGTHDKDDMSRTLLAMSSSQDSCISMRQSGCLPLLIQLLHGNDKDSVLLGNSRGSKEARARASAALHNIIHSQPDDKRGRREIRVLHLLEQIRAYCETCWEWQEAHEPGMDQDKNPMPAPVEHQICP
truncated N2-APC (aa 449-781) (P25054, residues 449-781): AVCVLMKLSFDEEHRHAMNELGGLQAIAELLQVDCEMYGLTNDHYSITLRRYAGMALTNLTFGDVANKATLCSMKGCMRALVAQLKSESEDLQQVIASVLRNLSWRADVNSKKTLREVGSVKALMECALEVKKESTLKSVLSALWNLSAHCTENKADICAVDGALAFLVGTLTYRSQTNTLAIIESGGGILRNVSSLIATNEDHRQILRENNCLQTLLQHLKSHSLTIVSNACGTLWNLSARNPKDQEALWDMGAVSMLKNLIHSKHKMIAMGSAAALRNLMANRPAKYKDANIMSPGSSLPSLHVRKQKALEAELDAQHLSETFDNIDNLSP
truncated N3-APC (782-1082) (P25054, residues 782-1082): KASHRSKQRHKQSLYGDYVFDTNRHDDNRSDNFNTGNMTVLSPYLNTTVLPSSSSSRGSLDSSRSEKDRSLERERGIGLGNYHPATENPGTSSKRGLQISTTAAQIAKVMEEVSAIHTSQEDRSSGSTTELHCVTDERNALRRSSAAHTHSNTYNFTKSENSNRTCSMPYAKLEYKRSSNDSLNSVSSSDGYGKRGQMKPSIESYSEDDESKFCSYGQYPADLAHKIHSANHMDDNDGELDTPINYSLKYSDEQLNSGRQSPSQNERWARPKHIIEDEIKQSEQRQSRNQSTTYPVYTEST

In test [1] the target is purified recombinant GST-GRP78 protein (human) (UniProt P11021). Description: pull-down; GST-GRP78 immobilized on Sepharose 4B-glutathione beads, incubated with pre-cleared whole cell lysates (HT-29, DLD1, or MDCK cells stably expressing APC truncations) at 4 °C for 12 h; immunoblot with anti-APC or anti-GFP antibody; only the target purified. Background: A western blot detects proteins with antibodies after separation by electrophoresis.

In test [2] the target is β-catenin, endogenous (human (endogenous in HT-29 and DLD1)) (UniProt P35222). Description: co-IP; endogenous proteins in whole cell lysates of HT-29, DLD1 or SW480 cells; 2 μg immunoprecipitation antibody overnight at 4 °C, Protein A/G PLUS-Agarose 2 h; cells in high glucose or glucose deprivation (Gd) with or without glutamine, or stably expressing GFP-GRP78.
Test [3] concerns the target Glucose regulated protein 78 (GRP78), endogenous (human (endogenous in HT-29, DLD1 and SW480)) (UniProt P11021). The description is as above.

These are yes or no findings as the source states them, for the method shown. In cells and extracts the contact can be indirect. Some entries that bind do so weakly or less than the wild type.

Take “truncated N3-APC (782-1082) (from UniProt P25054 782-1082) (domain or fragment)”: the binding result in test [1] was “no binding”.
“Glucose regulated protein 78 (GRP78), endogenous (from UniProt P11021 19-654)”: the binding entry in test [2] was “binds”.
For the substance “truncated N1-APC (aa 1-448) (from UniProt P25054 1-448) (domain or fragment)”, in test [1], the binding result is listed as “binds”.
For “β-catenin, endogenous (from UniProt P35222 1-781)”, the binding result in test [3] is given as “binds”.
For the substance “truncated N2-APC (aa 449-781) (from UniProt P25054 449-781) (domain or fragment)”, the binding result in test [1] is listed as “no binding”.
